# In PubChem BioAssay AID493208 (National Center for Advancing Translational Sciences (NCATS), 2011):
# Among all 44,000 compounds or so, about 340 (0.77%) were called active. Another 5% or so got no clear call; they are omitted. The call rests on the fitted dose curve; in most records, active means well fitted inhibition curve with a large enough effect; inconclusive means small, poorly fitted or top-dose-only effect; inactive means flat fitted curve, though single readings scatter. The list shows a part of the results.
# Assay: Acumen qHTS Assay for Inhibitors of the mTORC1 Signaling Pathway in MEF (Tsc2-/-, p53-/-) Cells: Sytravon; further: nearly all actives have a fitted effect of over 50% in size;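 on activity change, negative = inhibition: plate controls were DMSO for no effect and rapamycin for full effect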
# Conditions: phospho-rpS6 immunofluorescence/PI, 24 h; series mostly up to 38.3 µM; activity change, negative = inhibition: at the top concentration
# How it was run: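 Compounds act on Tsc2-/-, p53-/- fibroblasts carrying an empty vector for 24 h before fixation and dual staining for phospho-S6 and DNA (propidium iodide). Values are percentages of cells above a rapamycin-defined pS6/PI threshold.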
# Potency means the concentration at half of the fitted maximal effect.
SMILES,"activity change, negative = inhibition",Potency
COCCCNc1nc2c(S(=O)(=O)c3ccc(C)c(C)c3)nnn2c2ccc(Cl)cc12,inactive: 0.215%,–
Cc1ccc(NC(=O)CN2C(=O)CCn3nc(-c4cccn4C)cc32)cc1,inactive: 2.23%,–
Cc1ccc2oc(-c3cc(NC(=O)c4ccco4)ccc3Cl)nc2c1,inactive: 15.5%,–
CSc1ncc(C(=O)Nc2ccc(F)cc2F)c(-c2ccccc2)n1,inactive: 1.05%,–
CCCC1=Nc2cc(C(=O)NCCc3ccc(OC)cc3OC)ccc2Sc2ccccc21,inactive: -13.3%,–
Cc1ccc(CNC(=O)c2nn(C)c3c2CS(=O)(=O)c2ccccc2-3)cc1,inactive: 10.6%,–
CCC(=O)N1c2ccccc2CC1C(=O)NCCc1ccc(C)cc1 (stereo not drawn),inactive: 0%,–
Cc1cn(C)c(CC(=O)NCc2ccccc2Cl)c1C(=O)O,inactive: -4.1%,–
COc1ccc(-n2nc(C(=O)N3CCN(c4cccc(C)c4C)CC3)c3c4ccccc4n(C)c3c2=O)cc1,inactive: -0.391%,–
O=C(CSCc1nc2cccnc2n1C1CCCCC1)NCc1cccc(Cl)c1,inactive: 3.52%,–
CCC(C)OC(=O)/C(C#N)=C\c1ccc(-c2ccccc2Cl)o1 (stereo not drawn),inactive: 5.56%,–
O=C(Nc1nc2nc(-c3ccccc3)cc(=O)n2[nH]1)c1ccc(Cl)cc1,inactive: 3.61%,–
CNC(=O)COc1ccc(NC(=O)CCn2nc(-c3ccc(C)cc3)c3ccccc3c2=O)cc1,inactive: -0.807%,–
CCOc1ccc(N(CC(=O)NCc2ccc(C)cc2)S(=O)(=O)c2c(C)noc2C)cc1,inactive: -3.38%,–
O=C(c1ccc(CSc2nc3ccncc3n2Cc2cccc(F)c2)cc1)N1CCCCC1,inactive: 0.868%,–
CCOC(=O)c1c(C)oc2ccc(N(C(=O)c3ccncc3)S(=O)(=O)c3ccc(Br)cc3)cc12,inactive: -2.54%,–
CC1=C(c2ccc(C(C)C)cc2)S(=O)(=O)NC1=NCc1ccccc1Br,inactive: 5.94%,–
CNC(=O)C1CCC(Cn2c(=O)c3sccc3n(CC(=O)Nc3ccc(C)c(F)c3)c2=O)CC1 (stereo not drawn),inactive: -6.55%,–
COc1ccc(C)cc1NC(=O)C1CCCN(S(=O)(=O)c2ccc3[nH]c(=O)ccc3c2)C1 (stereo not drawn),inactive: -2.99%,–
COc1cc(NC(=O)CN2C(=O)CN(C)C(=O)c3ccccc32)cc(OC)c1OC,inactive: 2.04%,–
CCOc1cc2[nH]c(=O)n(CCCC(=O)N3CCN(c4ccc(OC)cc4)CC3)c(=O)c2cc1OCC,inactive: -4.32%,–
CCOC(=O)c1c(C)[nH]c(C)c1S(=O)(=O)N1CCC(C(=O)Nc2ccc(C)cn2)CC1,inactive: 2.8%,–
CCOc1ccc(CCNC(=O)Cn2ncc3c(=O)oc4ccc(C)cc4c32)cc1,inactive: 11.2%,–
CCn1c2ccccc2c2cc(NC(=O)COc3cccc(C)c3)ccc21,inactive: -10.7%,–

SMILES,"activity change, negative = inhibition",Potency
COc1ccc(OC)c(NS(=O)(=O)c2ccc3[nH]c4c(c3c2)CCCCC4)c1,inactive: -7.76%,–
CCCCN1CC(c2nc3ccccc3n2CCCCOc2ccc(C)c(C)c2)CC1=O (stereo not drawn),inactive: 3.09%,–
Cc1ccc(F)c(NC(=O)Nc2ccc3snnc3c2)c1,inactive: -3.01%,–
CC(=O)N1CCCc2cc(S(=O)(=O)N(C)CC(=O)Nc3cccc(C)c3C)ccc21,inactive: -3.8%,–
CCOc1ccc(CCNC(=O)c2cn(CC)c3ccc(S(=O)(=O)N4CCCCCC4)cc3c2=O)cc1OCC,inactive: -5.26%,–
O=C1c2[nH]nc(-c3ccccc3O)c2C(c2cccc(Cl)c2)N1Cc1cccnc1 (stereo not drawn),inactive: 0.0067%,–
O=C(NCCN1CCN(c2cccc(Cl)c2)CC1)C1COc2ccccc2C1 (stereo not drawn),inactive: -1.69%,–
Cc1cccc(CNC(=O)Cn2ccc3cc(S(=O)(=O)N4CCCC4)ccc32)c1,inactive: -10.1%,–
Cc1ccc(S(=O)(=O)N(CCc2ccccc2)CC(=O)Nc2cc(C)ccc2C)cc1,inactive: 5.95%,–
CCOC(=O)c1cc(-c2ccc(C)cc2)n(CCC(=O)Nc2ccc(C(C)C)cc2)c1C,inactive: -4.38%,–
CN(C)S(=O)(=O)c1ccc(C(=O)NC2CC(=O)N(c3ccc4c(c3)OCCO4)C2)cc1 (stereo not drawn),inactive: -11.3%,–
COc1cc(C2C(C(=O)Nc3ccc(C)cc3C)=C(C)Nc3nc4ccccc4n32)cc(OC)c1OC (stereo not drawn),inactive: -29.2%,–
Cc1cccc(NC(=O)CS(=O)(=O)c2nc(-c3ccccc3)cn2-c2cccc(Cl)c2)c1C,inactive: 8.9%,–
Cc1cccc(NC(=O)Cn2nnc(C(=O)Nc3ccccc3Br)c2N)c1C,inactive: 5.97%,–
COc1cccc(-c2nc(CS(=O)(=O)CC(=O)Nc3c(C)cc(C)cc3C)c(C)o2)c1,inactive: -11.5%,–
COc1cccc(N2CCN(C(=O)C3CCN(S(=O)(=O)c4c(C)noc4C)CC3)CC2)c1,inactive: 2.1%,–
CCOc1ccccc1NC(=O)c1nc2nc(C)cc(C(F)F)n2n1,inactive: 4.37%,–
O=C(NC1CC(=O)N(c2ccc(Cl)cc2)C1)c1ccc2c(c1)OCO2 (stereo not drawn),inactive: -0.869%,–
Cc1cc(NC(=O)N(C)CCc2c(C)nn(C)c2C)ccc1Br,inactive: 7.36%,–
Cc1ccc2c(=O)cc(C(=O)N(Cc3ccc(N(C)C)cc3)C3CCS(=O)(=O)C3)oc2c1 (stereo not drawn),inactive: 4.02%,–
CCCN1CCN(CCCNC(=O)Cn2nc(CC)n3c(cc4occc43)c2=O)CC1,inactive: -10.2%,–
CCc1cccc(C)c1NC(=O)CSc1nc2ccccc2nc1N1CCOCC1,inactive: -6.13%,–
COc1ccc(Cn2c(SCc3ccc(C(=O)NCc4cccs4)cc3)nc3cccnc32)cc1,inactive: -2.19%,–
CC1(C)O[C@H]2[C@@H](O1)[C@@H](C(=O)Nc1ccc(F)c(F)c1)O[C@@H]1OC(C)(C)O[C@@H]12,inactive: 2.28%,–

SMILES,"activity change, negative = inhibition",Potency
Cc1cc(F)ccc1NS(=O)(=O)c1c(C)nc2scc(C)n2c1=O,inactive: -18.6%,–
COc1ccccc1CN1C(=O)CN(C2CCCCCC2)C(=O)C1c1ccc(C)cc1 (stereo not drawn),inactive: -0.188%,–
CCOC(=O)c1cn(CC(=O)Nc2ccc(OC)cc2OC)nn1,inactive: -2.97%,–
Fc1ccc(Nc2ncnc3onc(-c4ccc(Cl)cc4)c23)cc1Cl,inactive: -8.98%,–
CCOc1ccc(CCNC(=O)c2ccc3c(c2)N(Cc2ccc(C)cc2)CCS3)cc1,inactive: -0.996%,–
O=C(C1CCCN(S(=O)(=O)c2ccc(Br)s2)C1)N1CCN(c2ccccc2F)CC1 (stereo not drawn),inactive: -8.63%,–
CCN(CC)CCCNc1sc(S(=O)(=O)c2ccccc2)nc1S(=O)(=O)c1ccc(Cl)cc1,–,active: 9.27 µM
CCOC(=O)c1c(C)[nH]c(CCC(=O)NC(C)c2ccccc2)c1C (stereo not drawn),inactive: 1.56%,–
COc1ccc(C)cc1NC(=O)NC(C)c1c(-n2cccc2)sc(C)c1C (stereo not drawn),inactive: -1.97%,–
CCN(C(=O)c1sc2nc3n(c(=O)c2c1C)CCCCC3)c1ccc(OC)cc1,inactive: 3.05%,–
Cc1ccc(Cl)cc1NC(=O)Cn1c(=O)n(CCC(=O)NCc2ccc3c(c2)OCO3)c(=O)c2sccc21,inactive: -1.02%,–
CCCC(=O)Nc1nnc(S(=O)(=O)N2CCCCCC2)s1,inactive: 3.08%,–
COC(=O)C(NC(=O)CCc1c(C)nc2c(-c3ccccc3)c(C)nn2c1C)C(C)C (stereo not drawn),inactive: -9.33%,–
COc1ccc(C2C(C(=O)Nc3ccccc3)=C(C)Nc3nc(SCC(=O)c4ccc(C)cc4)nn32)cc1 (stereo not drawn),inactive: -5.61%,–
CC1=C(c2ccc(F)cc2)S(=O)(=O)N=C1N1CCC(C(=O)NCCc2ccccc2C)CC1,inactive: -5.5%,–
Cc1c(C(=O)Nc2ccc(-n3c(C)nc4ccccc4c3=O)cc2)cccc1[N+](=O)[O-],inactive: -0.303%,–
CC(C)Cc1ccc(S(=O)(=O)N2CCN(Cc3noc(CCC(=O)N4CCCCC4)n3)CC2)cc1,inactive: -11.1%,–
CCOc1cc2c(cc1OCC)C(CC(=O)O)N(C(=O)Nc1ccccc1C(F)(F)F)CC2 (stereo not drawn),inactive: 11.2%,–
Cc1cc(C)nc(-n2nc(C)c3c2NC(=O)CC3c2cccc(O)c2)n1 (stereo not drawn),inactive: -2.01%,–
Cc1cc2nn(-c3ccc(F)cc3)nc2cc1NC(=O)c1cccc2c(Cl)cccc12,inactive: -3.18%,–
CCOC(=O)c1ccc2c(c1)N(Cc1ccc(F)cc1Cl)C(=O)c1ccccc1S2(=O)=O,inactive: 0.258%,–
CCn1c(C)c(C)c2cc(C(=O)NCc3ccc(F)cc3)ccc21,inactive: 1.36%,–
Cc1noc(-c2ccc(NC(C)c3ccccc3)c([N+](=O)[O-])c2)n1 (stereo not drawn),inactive: 4.73%,–
CCOC(=O)CC(=O)CSc1nc2ccsc2c(=O)n1Cc1ccccc1,inactive: -9.59%,–

SMILES,"activity change, negative = inhibition",Potency
CCC(=O)N1CCc2cc(Br)cc(S(=O)(=O)N3CCN(c4ccccc4OC)CC3)c21,inactive: -1.6%,–
Cc1ccc(CNC(=O)c2nc(SCc3ccccc3C)ncc2Cl)cc1,inactive: -3.38%,–
CC1(c2ccccc2)CC(C)(C)N(C(=O)c2cccc(Cl)c2)c2ccccc21 (stereo not drawn),inactive: 6.47%,–
COc1ccccc1NC(=O)c1ccc(CN2C(=O)C(C)=C(c3ccc(C)c(C)c3)S2(=O)=O)cc1,inactive: -10.8%,–
Cc1ccc(CNC(=O)c2ccc(CSCc3cccc(C)c3)o2)cc1,inactive: 10.6%,–
Cc1cc(C)cc(-n2c(SCC(=O)N3CCOCC3)nc3c([nH]c4ccccc43)c2=O)c1,inactive: -0.524%,–
Cc1ccc(C)c(OCCn2c(CCNC(=O)C3CCCCC3)nc3ccccc32)c1,inactive: -4.27%,–
Cc1ccc(CCNS(=O)(=O)c2c(C)nc3sc(C)c(C)n3c2=O)cc1,inactive: -3.46%,–
COc1cccc(-c2nnc(-c3ccccc3NC(=O)c3ccc(F)cc3F)o2)c1,inactive: 1.5%,–
Cc1nc2ccn(Cc3cccs3)c(=O)c2cc1C(=O)N1CCN(c2ccccc2F)CC1,inactive: -8.09%,–
O=C1C(=O)N(C2CCN(C(=O)c3ccccc3Cl)CC2)CCN1Cc1ccc(F)cc1,inactive: 5.86%,–
COc1cccc(NC(=O)c2ccc3c(c2)CCN3S(C)(=O)=O)c1,inactive: 4.01%,–
CC1CCN(S(=O)(=O)c2ccc3c(c2)N(CC(=O)NCCc2ccccc2)C(=O)CO3)CC1,inactive: 1.56%,–
COc1ccc(C2=CC(c3ccccc3Cl)n3nc(-c4ccc(Cl)cc4)nc3N2)cc1 (stereo not drawn),inactive: 1.86%,–
COC(=O)c1scc(-c2ccc(C)cc2)c1S(=O)(=O)N1CCN(c2ccc(C(C)=O)cc2)CC1,inactive: 2.23%,–
Cc1ccc(Cl)cc1N1CCN(C(=O)Cn2cnc3sc(C)c(S(=O)(=O)N4CCC(C)CC4)c3c2=O)CC1,inactive: -29.3%,–
COc1ccccc1CNC(=O)CCS(=O)(=O)c1ccc2c(c1)CCN2C(C)=O,inactive: 1.94%,–
Cc1nc2nc(NCc3ccc(Cl)cc3)[nH]n2c(=O)c1Cc1ccccc1,inactive: 0.556%,–
CCCn1c(CCC(=O)Nc2ccc(OCC)cc2)nc2cccnc21,inactive: 9.19%,–
CC1CCc2c(sc(NC(=O)C3c4ccccc4Oc4ccccc43)c2C#N)C1 (stereo not drawn),inactive: 2.97%,–
Cc1ccc(-n2c(=O)c3c(C)c(C)sc3n(CC(=O)NCc3ccccc3)c2=O)cc1C,inactive: -13.3%,–
